Results published in PubChem BioAssay AID485364 (National Center for Advancing Translational Sciences (NCATS), 2010).
Screen size: about 360,000 compounds; about 11,000 (3.1%) were called active. Inconclusive means that the source gave no clear call. Such entries were picked first, then a sample of the others. Calls come from the whole dose curve; as a rule, active = well fitted inhibition curve with a large enough effect; inconclusive = small, poorly fitted or top-dose-only effect; inactive = no such curve, though single readings can be large or run the other way. No potency is given beside an inconclusive call; the fits are too rough.

target: Schistosoma mansoni thioredoxin glutathione reductase (TGR) (UniProt Q962Y6); test: qHTS Assay for the Inhibitors of Schistosoma Mansoni Peroxiredoxins; conditions: purified TGR, DTNB reduction, TNB absorbance 405 nm; activity change, negative = inhibition: at 114 µM (top of the series) unless noted; note: nearly all actives have a fitted effect of over 60% in size
How it was run: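 Kinetic colorimetric format: TGR-catalysed, NADPH-driven DTNB reduction monitored via TNB absorbance. Enzyme dispensed at 20 nM; compound exposure 15 min at room temperature before reaction start.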
% is set by controls: 0 for no effect and ±100 for the full control effect; potency is the fitted concentration of half-maximal effect; tags give direction and shape of the fitted curve.

SMILES | Potency | activity change, negative = inhibition
O=C(COc1ccc(Cl)cc1Cl)N(Cc1ccco1)C1CCS(=O)(=O)C1 (configuration not stated) | inconclusive [inhibitor, partial curve] | 
Cc1ccc(-c2nc3ccccc3c(=O)n2-c2c(C)n(C)n(-c3ccccc3)c2=O)cc1 |  | inactive: -1.67%
COc1ccccc1-c1cc(C(=O)N/N=C/c2ccoc2)c2ccccc2n1 |  | inactive: 0%
CN(Cc1ccon1)C(=O)C1CCN(C2CCN(CCCc3ccccc3)CC2)CC1 | inconclusive [inhibitor, full curve, poor fit] | 
Cc1cccc(CC(=O)N2CCOCC2)c1 | inconclusive [inhibitor, partial curve] | 
Cc1ccc(NC(=O)c2ccc([N+](=O)[O-])o2)cc1S(=O)(=O)N1CCOCC1 | active: 14.1 µM | 
CC(C)CC(=O)Nc1cc(-c2ccccc2F)nn1-c1ccccc1 |  | inactive: 1.32%
CNC(=S)Nc1cccc(C(=O)OC)c1 | active: 31.6 µM | 
CCCOc1ccc(N2C(=O)CC(NCCNc3ccc(S(=O)(=O)CC)cc3)C2=O)cc1 (configuration not stated) | inconclusive [inhibitor, partial curve] | 
CCCCc1ccc(NC(=S)NCCCN2CCOCC2)cc1 | active: 50.1 µM | 
COc1ccc(C)cc1Nc1n[n+](C)c(-c2ccc(O)cc2O)s1 | inconclusive [inhibitor, partial curve] | 
CCN(c1ccccc1)S(=O)(=O)c1ccc(-c2cc(C)no2)s1 |  | inactive: 23%
C/C=C(\C)C(=O)N1CC2(CC(c3cccc(NC(=O)COc4ccc(Cl)cc4)c3)=NO2)C[C@@H]1C(N)=O (some centres not stated) |  | inactive: -15.2%
O=C(CCS(=O)(=O)c1cccc2nonc12)NCCc1ccccc1Cl | inconclusive [inhibitor, partial curve] | 
COc1ccc(-c2nnc(NC(=O)c3ccc([N+](=O)[O-])o3)o2)c(OC)c1 | inconclusive [inhibitor, partial curve] | 
CCN(CC)S(=O)(=O)c1cccc(-c2nnc(SCc3nc4ccccc4s3)o2)c1 |  | inactive: -7.2%
Cc1cc(C)c(S(=O)(=O)N(CC(=O)O)CC(=O)O)c(C)c1 |  | inactive: 7.06%
CN(C)CCNc1oc(COc2ccc(Cl)cc2)nc1C#N | active: 28.2 µM | 
COC(=O)c1cccc(C23CC4(C2)[C@H](CN(C)[C@@H]4c2ccccc2)C3c2ccccc2)c1 (some centres not stated) | inconclusive [inhibitor, partial curve] | 

SMILES | Potency | activity change, negative = inhibition
Cc1ccc(S(=O)(=O)O/N=C2/CCCc3occc32)cc1 | inconclusive [inhibitor, partial curve] | 
O=C(Nc1nc(-c2ccccc2)ns1)c1cccs1 |  | inactive: 2.8%
O=[N+]([O-])c1ccc2nc(Cl)nc(-c3ccccc3)c2c1 | inconclusive [inhibitor, full curve, poor fit] | 
Cc1ccc(-c2nc(CSc3nncn4c3cc3occc34)c(C)o2)cc1 | inconclusive [inhibitor, single point] | 
CC(=O)C1=C(C)OC(N)=C(C#N)C1c1cc([N+](=O)[O-])ccc1Cl (configuration not stated) | active: 22.4 µM | 
NC(=O)[C@@H]1CC2(CC(c3cccc(NC(=O)[C@@H]4CCC(=O)N4)c3)=NO2)CN1C(=O)Cc1ccc([N+](=O)[O-])cc1 (some centres not stated) |  | inactive: -21.4%
Cc1cc(C(=O)NCCC(c2ccccc2)c2ccccc2)c(C)o1 | inconclusive [inhibitor, full curve, poor fit] | 
Nc1ccc(S(=O)(=O)NNC(=O)C(=O)NNc2ccccn2)cc1 | inconclusive [inhibitor, single point] | 
O=C1CC(NCC2CCCO2)C(=O)N1c1ccc(Cl)cc1 (configuration not stated) | inconclusive [inhibitor, partial curve] | 
COc1ccc(-c2cn(-c3ccc(C)c(Cl)c3)c(=S)[nH]2)cc1OC | inconclusive [inhibitor, partial curve] | 
Cc1[nH][nH]c(=O)c1C(c1c(C)[nH][nH]c1=O)c1cn(C)c2ccccc12 |  | inactive: -6.05%
Cc1ccc(Cn2nnnc2CN2CCC(O)(c3ccc(F)cc3)CC2)cc1 | inconclusive [inhibitor, partial curve] | 
Cc1nc2nc(SCC(=O)NCCCN3CCCCCC3)nn2c(C)c1Cc1ccccc1Cl |  | inactive: 4.34%
CCc1c(C)c2cc(Cl)c(O)c(CN(CC)CC)c2oc1=O | inconclusive [inhibitor, partial curve] | 
COc1ccc(C(=O)NCCc2ccc(C)cc2)cc1OC1CCN(C(C)=O)CC1 |  | inactive: -2.93%
Cc1ccc(-n2c(C)c([N+](=O)[O-])c3ccc(O)cc32)cc1 | active: 8.91 µM | 
O=C1CC(N(C(=O)c2ccco2)c2cccc(Cl)c2)C(=O)N1c1cccc(Cl)c1 (configuration not stated) | inconclusive [inhibitor, partial curve, poor fit] | 
CCC1CCCCN1S(=O)(=O)c1ccc(C(=O)Nc2sc3c(c2C(N)=O)CCC3)cc1 (configuration not stated) | active: 35.5 µM | 
